About 12,000 (3.5%) of roughly 340,000 compounds were called active. The inconclusive results got no clear call from the source; some entries with a clear call stand among them for comparison. Calls come from the whole dose curve; as a rule, active = well fitted inhibition curve with a large enough effect; inconclusive = small, poorly fitted or top-dose-only effect, or another doubt; inactive = no such curve, though single readings can be large or run the other way. Potencies of inconclusive entries are left out as doubtful fits.
test: qHTS Assay for Inhibitors of Hepatitis C Virus (HCV); conditions: Huh7.5.1 HCVcc-Cre (HCVcc is cell-culture hepatitis C virus) infection, luciferase reporter, 44 h; series mostly up to 41.8 µM
Method in brief: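 After 44 h co-culture of compound, cells and HCVcc-Cre (~0.5 moi), substrate is added for 15 min at room temperature and luciferase measured over 15 sec. Cells were seeded at 1,000/well and pre-cultured 4 h.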
Potency is the fitted concentration of half-maximal effect; tags give direction and shape of the fitted curve.

| SMILES | Potency |
| --- | --- |
| Nc1ccc(-c2cc3ccccc3oc2=O)cc1 | inactive |
| CCCNC(=O)CSc1nc(-c2cccs2)cc(C(F)(F)F)n1 | active: 3.98 µM |
| CCNS(=O)(=O)c1ccc(CCC(=O)N2CCN(c3cc(Cl)ccc3C)CC2)cc1 | active: 11.2 µM |
| Cc1ccc(OCC(=O)Nc2ccc(C)c(S(=O)(=O)N3CCCCC3)c2)c([N+](=O)[O-])n1 | inconclusive [inhibitor, full curve] |
| CC(C)(C)OC(=O)[C@H](Cc1ccccc1)NC(=O)c1[nH]cnc1C(=O)N[C@@H](Cc1ccccc1)C(=O)OCc1ccccc1 | inactive |
| CCOC(=O)C(=CNc1cc(C)nn1C(C)(C)C)C(=O)OCC | inconclusive [inhibitor, partial curve] |
| COc1ccc(OC)c(NC(=O)c2ccc3c(c2)C(=O)N(c2ccc(OC(C)=O)cc2)C3=O)c1 | inactive |
| NNc1ccccc1C(F)(F)F | inactive |
| CCCCNC(=O)c1ccc(NS(=O)(=O)c2ccc3[nH]c(=O)[nH]c3c2)cc1 | inactive |
| COc1cc(/C=C(\C#N)C(=O)NCC2CCCO2)cc(OC)c1OC (stereo unspecified) | inconclusive [inhibitor, partial curve] |
| CC1(C)CC2CC(C)(CN2Cc2c(O)ccc3ccccc23)C1 (stereo unspecified) | inactive |
| O=C1NCC(c2ccccc2)C1C(=O)N/N=C\c1ccc(-c2ccc(Cl)c(Cl)c2)o1 (stereo unspecified) | inconclusive [inhibitor, partial curve] |
| CCOC(=O)Cn1c(=NC(=O)CC)sc2c(C)cc(C)cc21 | inactive |
| CNc1nc(OCCNC(=O)Nc2ccccc2)nc(N2CCOCC2)n1 | inconclusive [inhibitor, partial curve] |
| COc1ccc(CC(=O)Nc2ccc(-c3noc(-c4ccccc4OC)n3)cc2)cc1 | inconclusive [inhibitor, full curve] |
| Cc1cc(Nc2cccc(Cl)c2Cl)n2ncnc2n1 | inconclusive [inhibitor, single point] |
| Cc1ccc(C(=O)Nc2nc(COc3ccccc3)cs2)s1 | active: 11.2 µM |
| CCc1c(C)sc(NC(=S)Nc2nc(C)cc(C)n2)c1C(=O)OC | inconclusive [inhibitor, single point] |
| CCCn1c(=O)c(C(=O)NCc2ccccn2)c(O)c2ccccc21 | inconclusive [inhibitor, full curve, poor fit] |
| Cn1cc(C(=O)OCC2CCN(CCNS(C)(=O)=O)CC2)c2ccccc21 | inconclusive [inhibitor, single point] |
| Cc1ccccc1S(=O)(=O)Cc1ccc(C(=O)NC2CC2)o1 | inconclusive [inhibitor, single point] |
| O=C(Nc1cccnc1)c1ccccc1F | inactive |
| O=C1c2ccccc2-c2c1c1ccccc1c(=O)n2CCO | inconclusive [inhibitor, single point] |
| CC1CCN(CCOCCSc2ccc(Cl)cc2)CC1 | inconclusive [inhibitor, single point] |

| SMILES | Potency |
| --- | --- |
| Cc1cc(C)cc(-n2c(N)c(C(=O)Nc3c(C)n(C)n(-c4ccccc4)c3=O)c3nc4ccccc4nc32)c1 | inconclusive [inhibitor, partial curve, poor fit] |
| Cc1oc(-c2cc(F)ccc2F)nc1CN(C)Cc1ccc2nccnc2c1 | inconclusive [inhibitor, partial curve, poor fit] |
| CC(=O)Nc1nc2c(C)c(Cl)ccc2s1 | inactive |
| COc1ccc2nc(NC(=O)CSc3nccc(C)n3)sc2c1 | inconclusive [inhibitor, partial curve] |
| Cc1ccc2nc(-c3cccc(S(=O)(=O)N4CC(C)OC(C)C4)c3)cn2c1 (stereo unspecified) | inconclusive [inhibitor, single point] |
| CCN(CC)S(=O)(=O)c1cc(NC(=O)COC(=O)c2c(C)noc2C)ccc1C | active: 14.1 µM |
| CCN(CCCNC(=O)CN1C(=O)COc2ccccc21)c1cccc(C)c1 | inconclusive [inhibitor, single point] |
| COc1cccc(/C=N/N2CCN(c3ccccc3OC)CC2)c1 | inactive |
| COc1ccc(-c2nnn(CC(=O)NCCc3c[nH]c4ccccc34)n2)cc1OC | inconclusive [inhibitor, partial curve] |
| CCCOc1ccc(C(F)(F)F)cc1NC(=O)CCc1c(C)noc1C | active: 7.08 µM |
| CC(C)OC(=O)c1c(NC(=O)c2ccco2)sc2c1CCCCC2 | inconclusive [inhibitor, partial curve] |
| O=C(Oc1ccc(-c2ccccc2)cc1)N1CCCCC1 | inactive |
| C=CCn1c(SCC(=O)NC2CC2)nnc1-c1cccs1 | inactive |
| O=C(OCc1nnc(-c2ccccc2)o1)c1cc(=O)[nH]c2ccccc12 | inactive |
| Cc1cc(C)nc(-n2nc(C)cc2NC(=O)c2ccc(S(=O)(=O)N3CCOCC3)cc2)n1 | inactive |
| COc1ccc(CNC(=O)[C@@H](NC(=O)C2CCN(C(=O)[C@@H](N)CC(C)C)CC2)C(C)C)cc1 | inactive |
| COc1ccc(N2CCN(c3ncnc4scc(-c5ccc(F)cc5)c34)CC2)cc1 | inconclusive [inhibitor, single point] |
| CCOc1ccc(S(=O)(=O)n2cc(-c3ccc(F)cc3)c(N)n2)cc1 | inconclusive [inhibitor, partial curve] |
| COc1cccc(C(c2c(NC(=O)c3ccco3)sc(C)c2C)N2CCOCC2)c1 (stereo unspecified) | inconclusive [inhibitor, partial curve] |
| Cc1c(NC(=O)CSc2nnc3c4ccccc4n(CCc4ccccc4)c3n2)c(=O)n(-c2ccccc2)n1C | inconclusive [inhibitor, single point] |
| CC1CCN(C(=S)SCc2nc(N)nc(Nc3ccccc3)n2)CC1 | inactive |
| CSc1nccc(NC(=O)c2ccc(C(C)(C)C)cc2)n1 | active: 1.78 µM |
| Cn1c(=O)n(CCc2ccccc2)c(=O)c2c1nc1n2CCN1Cc1ccco1 | inconclusive [inhibitor, single point] |
| CCOc1ccc(C2=NNC(c3cccs3)=Nc3ccc(OC)cc32)cc1 | inactive |

| SMILES | Potency |
| --- | --- |
| O=C(CN1CCN(c2ccc(F)cc2)CC1)N1N=CCC1c1ccccc1 (stereo unspecified) | active: 11.2 µM |
| CCOC(=O)c1c(-c2ccc(OC)cc2)csc1NC(=O)CCN1C(=O)c2ccccc2C1=O | inconclusive [inhibitor, single point] |
| Cc1ccc(C2(C)NC(=O)N(CC(=O)Nc3cc(S(=O)(=O)N4CCOCC4)ccc3OC(C)C)C2=O)cc1 (stereo unspecified) | inconclusive [inhibitor, single point] |
| CC(C)(C)c1ccc(CNc2cc(N3CCOCC3)ccc2[N+](=O)[O-])cc1 | active: 10 µM |
| COc1ccccc1NS(=O)(=O)c1cccc(C(=O)N/N=C/c2ccc([N+](=O)[O-])o2)c1 | active: 11.2 µM |
| O=c1c2c(nc3c(-c4ccccc4)c[nH]n13)CCC2 | inconclusive [inhibitor, partial curve] |
| COc1ccccc1N1CCN(C(=O)Nc2ccc([N+](=O)[O-])cc2)CC1 | inconclusive [inhibitor, full curve] |
| COC(=O)c1sccc1NC(=O)COc1ccccc1Cl | inactive |
| COC(=O)[C@]1(C)N[C@H](CN(C)C(=O)Nc2ccc(C)cc2)[C@@H]2C(=O)N(Cc3ccccc3)C(=O)[C@@H]21 | active: 2.82 µM |
| O=[N+]([O-])c1ccccc1N=NNc1ccccc1 | inconclusive [inhibitor, partial curve] |
| COc1ccc(/C(C)=N/NC(=O)c2nnn(-c3nonc3N)c2-c2cccs2)cc1OC | inconclusive [inhibitor, single point] |
| CCOc1ccc(-c2cc(C(=O)N/N=C(\C)c3cccnc3)c3ccccc3n2)c(OCC)c1 | inconclusive [inhibitor, single point] |
| FC(F)(F)COc1cc(-c2nnc(SCc3ccccc3)n2Cc2ccco2)cc(OCC(F)(F)F)n1 | inconclusive [inhibitor, partial curve] |
| COc1ccc(C2CC(c3ccc(OC)c(OC)c3)=NN2S(C)(=O)=O)cc1 (stereo unspecified) | inconclusive [inhibitor, single point] |
| O=S(=O)(c1cccs1)N1CCN(CCOc2ccc(Cl)cc2)CC1 | inconclusive [inhibitor, single point] |
| COc1ccc(CCNC(=O)COc2cc(O)c3c(c2)OC(C)(C)CC3=O)cc1OC | active: 3.16 µM |
| COc1ccc(CN(C)CC(=O)Nc2cccc(S(N)(=O)=O)c2)c(OC)c1OC | inactive |
| CCOC(=O)c1c(NC(=O)COC(=O)Cc2c[nH]c3ccccc23)sc(C(=O)N(C)C)c1C | active: 14.1 µM |
| O=C(CCCc1ccccc1)NCc1ccccn1 | inactive |
| CCC(=O)Nc1cccc(C(=O)c2ccc(C)c(C)c2)c1 | inconclusive [inhibitor, single point] |
| COc1ccc(C(=O)N2CCn3c(C)ccc3C2C)cc1 (stereo unspecified) | inactive |
| CC[C@]12c3[nH]c4ccccc4c3CCN1C(=O)C(CC(=O)NCc1cccc(C(F)(F)F)c1)C[C@@H]2C(=O)N1CCN(C(=O)c2ccco2)CC1 (stereo partly specified) | inconclusive [inhibitor, single point] |
| CCc1cccc(C)c1NC(=O)c1cc(-c2ccncc2)nc2ccccc12 | inconclusive [inhibitor, partial curve] |

Reference: PubChem BioAssay AID651820 (National Center for Advancing Translational Sciences (NCATS), 2012)
